Consider 81 compounds from PubChem BioAssay AID1346428 (National Center for Advancing Translational Sciences (NCATS), 2018).

Values joined by “and” are separate entries in the source; they are usually repeats but may differ in a detail not shown here. Identical values can stand only once. Screen size: about 48,000 compounds; about 1,200 (2.5%) were called active. Another 2% or so got no clear call; they are omitted.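 Rule for the calls: active = activation of at least 60% and not above a set upper limit (about 1 call in 100 departs from these limits); inconclusive = activation of 40% to 60%, or above that upper limit; inactive = activation under 40%.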 The list shows a part of the results.

Sequence of UniProt O75388 (O75388 whole entry, looked up, the tested form may be a part): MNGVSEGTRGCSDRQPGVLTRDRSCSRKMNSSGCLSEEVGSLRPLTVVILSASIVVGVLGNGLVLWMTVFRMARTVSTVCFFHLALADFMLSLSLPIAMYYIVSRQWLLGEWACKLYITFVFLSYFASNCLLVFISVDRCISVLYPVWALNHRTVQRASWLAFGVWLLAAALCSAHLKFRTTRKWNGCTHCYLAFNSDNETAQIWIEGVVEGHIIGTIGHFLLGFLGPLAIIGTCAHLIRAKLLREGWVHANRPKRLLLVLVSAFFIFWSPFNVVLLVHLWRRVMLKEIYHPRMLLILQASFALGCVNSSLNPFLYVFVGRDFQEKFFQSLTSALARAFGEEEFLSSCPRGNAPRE

This assay concerns the target Probable G-protein coupled receptor 32 (Homo sapiens) (UniProt O75388). The assay is described as follows: qHTS for Agonists of Human Resolvin D1 Receptor DRV1. Note: 0% is about no effect. Conditions: CHO-K1 GPR32 beta-arrestin PathHunter luminescence, 90 min; at 76.9 µM; hits give high values; zero percent set by DMSO-only wells. The procedure, abridged:
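GPR32 activation in stably transfected CHO-K1 cells, detected as beta-arrestin recruitment by enzyme-fragment complementation. Compound exposure: 90 min, 37 °C.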
With `COc1ccc(C)cc1NC(=O)CSc1nc2ccccc2nc1N1CCOCC1`, the activation was inactive: -26.7%.
With `CC1CCCN(S(=O)(=O)c2ccc3[nH]c(=O)cc(C(=O)NCCc4ccc(Cl)cc4)c3c2)C1` (stereo unspecified), the activation is inactive: -15.6%.
As for `COc1cc(OC)cc(-c2nc(-c3cccc(C)c3)no2)c1`, the activation was inactive: 8.19%.
To `Cc1ccc(-n2c3c(c(=O)[nH]c2=O)C(NC(=O)c2ccccc2C)(C(F)(F)F)C(=O)N3)cc1` (stereo unspecified) belongs inactive: 1.86%; to `Cc1cc2ccccc2n1-c1ccc(C(=O)N2CCC(C(=O)NCc3ccccc3Cl)CC2)s1`, inactive: -13.4%.
As for `COc1ccccc1N1CCN(C(=O)CSc2n[nH]c(-c3ccccc3)n2)CC1`, the figure is inactive: -2.28%; as for `COc1cccc(/C=C/c2onc(C)c2S(=O)(=O)N2CCC(C(=O)N3CCC(C)CC3)CC2)c1`, inactive: -15.9%.
For `CC(CNC(=O)Cc1ccc(NC(=O)N2CCSc3ncccc32)cc1)c1ccccc1` (stereo unspecified), the activation was inactive: 4.32%.
To `CCOC(=O)C1=C(CN2CCN(c3ccccc3F)CC2)NC(=O)NC1c1ccc(Cl)cc1` (stereo unspecified) belongs inactive: -37%; to `Cc1ccccc1NCc1cccn1-c1nnc(N2CCC(C)CC2)s1`, inactive: -8.09%.
Take `COc1ccc(-c2cn3c(n2)sc2cc(C(=O)Nc4cccc(OC)c4)ccc23)cc1`: the activation is inactive: -17.7%.
To `COC(=O)c1scc(-c2ccc(C)cc2)c1S(=O)(=O)Nc1ccc(N(C)C)cc1` belongs inactive: -11.9%; to `Cc1nc2c(-c3ccccc3)c(C)nn2c(C)c1CCC(=O)NCc1ccc(F)cc1`, inactive: -0.413%.
To `Cc1c(Cl)cccc1-n1nc(C)c2c(C(=O)NCc3ccccc3)cc(C3CC3)nc21` belongs inactive: -14.1%; to `Cc1ccc(CNC(=O)C2CCN(S(=O)(=O)c3cc(-c4noc(C)n4)ccc3C)CC2)cc1`, inactive: 0.172%; to `CCOc1ccc(NC(=O)CC2C(=O)N(c3ccccc3)C(=O)N2Cc2ccc3c(c2)OCO3)cc1` (stereo unspecified), inactive: -12.6%.
To `Cn1c(=O)oc2cc(S(=O)(=O)Nc3ccccc3O)ccc21` belongs inactive: 2.99%.
As for `COc1ccc(-c2cc(C(F)(F)F)nc(SCC(=O)N3CCC(C)CC3)n2)cc1`, the activation is inactive: -15.2%.
As for `O=C(NCc1ccc(Cl)cc1)C1CCN(S(=O)(=O)Cc2ccccc2)CC1`, the figure is inactive: -5.97%; as for `CCOc1ccc(CCNC(=O)c2cc3c(s2)-c2ccccc2OC3)cc1OCC`, inactive: -1.59%; as for `Cc1ccc(-c2cc(NC(=O)COc3ccc(Cl)cc3C)on2)cc1`, inactive: 4.73%.
With `COc1ccc(OC)c(-c2csc(-c3c(N)c(C(=O)c4ccccc4)n4ccccc34)n2)c1`, the activation was inactive: 15.7%.
To `CC(C)NCC(O)COc1ccc(COCCOC(C)C)cc1` (stereo unspecified) belongs inactive: 10.6% and inactive: -2.98%; to `COc1ccc(CN(Cc2ccco2)c2cnc(S(C)(=O)=O)nc2C(=O)Nc2ccc(F)cc2)cc1`, inactive: -9.94%.
To `COc1ccc(S(=O)(=O)N(CC(=O)Nc2cccc(C(F)(F)F)c2)c2ccc(C)cc2)cc1` belongs inactive: 20%; to `CCCCOc1ccc(CNC(=O)C2COc3ccc(OC)cc3C2)cc1` (stereo unspecified), inactive: -2.32%; to `Cn1c(=O)n(C/C=C/c2ccccc2)c(=O)c2c1nc1n2CCN1c1ccccc1`, inactive: -2.56%.
`COc1ccc(-n2c(=O)c3c(c4cc(OC)ccc4n3C)n(Cc3cc(C)ccc3C)c2=O)cc1`: the activation was inactive: 8.72%.
To `CCOc1ccc(C(=O)c2cn(CC(=O)Nc3ccc4c(c3)OCO4)c3ccc(OCC)cc3c2=O)cc1` belongs inactive: 7.14%; to `Cc1ccc(NC(=O)CN2C(=O)COc3ccc(S(=O)(=O)N4CCCCC4)cc32)cc1N(C)C`, inactive: -20.9%.
To `O=C(Cn1ncn2nc(-c3cccs3)cc2c1=O)NCc1cccc(Br)c1` belongs inactive: -7.66%; to `COC(=O)c1cccnc1-n1c(=O)c2cccnc2n(CC(=O)Nc2c(C)cc(C)cc2C)c1=O`, inactive: 11%.
To `Nc1c(C(=O)c2ccc(F)cc2)sc(Nc2ccccc2F)c1S(=O)(=O)c1ccc(Br)cc1` belongs inactive: -51.5%.
As for `Cc1cccc(CNC(=O)c2ccc(NC(=O)N3CC(C)Sc4ccccc43)cc2)c1` (stereo unspecified), the activation is inactive: -18.5%.
As for `CC(C)CN(CCNC(=O)CN1C(=O)CSc2ccc(S(=O)(=O)N3CCOCC3)cc21)CC(C)C`, the figure is inactive: -12.1%; as for `CCOc1ccc(S(=O)(=O)N(CC(=O)Nc2ccc3c(c2)OCO3)c2ccccc2)cc1`, inactive: -1.66%.
To `Cc1ccc(NC(=O)Cn2c(=O)n(-c3ccccc3)c(=O)c3ccc(C(=O)NCc4ccc5c(c4)OCO5)cc32)c(C)c1` belongs inactive: 1.45%.
To `O=C(Nc1c(-c2ccc(F)cc2)nc2ccccn12)c1ccccc1F` belongs inactive: -12.6%; to `COc1ccccc1CNC(=O)c1ccc2c(c1)CCN2S(=O)(=O)c1ccccc1`, inactive: -9.95%.
On to `O=C(/C=C\c1ccc2c(c1)OCO2)NC1CC(=O)N(c2cccc(F)c2)C1` (stereo unspecified), for which the activation was inactive: -7.99%.
On to `CCOC(=O)c1cccc(NC(=O)c2ccc3nc(Cc4ccccc4)oc3c2)c1`, for which the activation is inactive: -17%.
Take `CC(C)c1cc(-c2nc(-c3ccc(Br)cc3)no2)n[nH]1`: the activation is inactive: 6.14%.
As for `CCCN(Cc1cccs1)C(=O)Nc1ccc(Br)cc1F`, the figure is inactive: -5.66%.
To `Cc1cc2c(n1-c1ccc(C(=O)NCCc3ccccc3)cc1)CCC(C)C2` (stereo unspecified) belongs inactive: -12.4%.
`CCCN1CCN(CCNC(=O)Nc2ccccc2OCC)CC1`: the activation is inactive: 1.75%.
To `CCN1CCN(c2ncc3c(n2)CCN(Cc2ccc(OC)c(OC)c2)C3)CC1` belongs inactive: -0.307%; to `COc1ccc2[nH]c(=O)c(CN(C(=O)c3cccc(Cl)c3)c3cccc(C)c3)cc2c1`, inactive: -14.4%.
As for `COc1cccc(CNC(=O)CCCCCn2c(=O)[nH]c3cc(OC)c(OC)cc3c2=O)c1`, the figure is inactive: -3.02%.
As for `CCN1C(=O)c2ccccc2S(=O)c2ccc(C(=O)N3CCN(c4ccccc4OC)CC3)cc21` (stereo unspecified), the figure is inactive: -7.69%.
On to `COc1cc(C(CC(=O)Nc2cc(C)ccn2)N2Cc3ccccc3C2=O)cc(OC)c1OC` (stereo unspecified), for which the activation is inactive: 17.9%.
To `CCOC(=O)c1c(C)[nH]c(C)c1S(=O)(=O)NCC(=O)NCc1ccccc1Cl` belongs inactive: -6.72%.
As for `CN(Cc1ccccc1)C(=O)c1cc(-c2cccc(Cl)c2)on1`, the figure is inactive: 0.282%.
As for `COc1ccccc1CNC(=O)CCCn1c(=O)c2ccccc2n(Cc2ccccc2C#N)c1=O`, the activation is inactive: 10.4%.
To `Cc1cc2c(n1-c1ccc(C(=O)NCc3ccc(OC(C)C)cc3)cc1)CCCC2` belongs inactive: -16.2%; to `COc1cc(-c2oc3ccc(C)cc3c(=O)c2O)cc(OC)c1OC`, inactive: 10.5%; to `COc1ccc2c(c1)c1c(c(=O)n(-c3cccc(C)c3)c(=O)n1CC(=O)NCC1CCCO1)n2C` (stereo unspecified), inactive: 16.7%.
As for `COc1ccccc1NC(=O)CSc1oc(-c2ccccc2)nc1S(=O)(=O)c1ccccc1`, the figure is inactive: -32.4%.
To `CC(C)=CCC/C(C)=C/CC/C(C)=C/C(=O)OCC(=O)[C@@]1(O)CC[C@H]2[C@@H]3CCC4=CC(=O)C=C[C@]4(C)[C@H]3[C@@H](O)C[C@@]21C` belongs inactive: 5.95%; to `Cc1cccc(Cc2c(C)nc3nc(SCc4ccccc4F)nn3c2C)c1`, inactive: -2.51%.
`CCOc1ccccc1C(=O)Nc1ccc(S(=O)(=O)Nc2ncccn2)cc1`: the activation was inactive: -7.08%.
To `O=C(CN1C(=O)COc2ccc(S(=O)(=O)N3CCCCCC3)cc21)NCCc1ccccc1` belongs inactive: -50.4%; to `Cc1ccc(NC(=O)N2CCN(C)c3ncccc32)cc1C`, inactive: -1.76%.
As for `CSc1nc(N)c2ncn([C@@H]3O[C@H](COP(=O)(O)OP(=O)(O)OP(=O)(O)O)[C@@H](O)[C@H]3O)c2n1`, the figure is inactive: 3.9%; as for `COCCNC(=O)c1c(NC(=O)c2cc(=O)c3cc(Cl)ccc3o2)sc2c1CCCC2`, inactive: 8.77%.
With `COC(=O)c1ccccc1NC(=O)N1CCC(n2c(C)nc3cccnc32)CC1`, the activation is inactive: 9.76%.
With `COc1cc(OC)c(N(C)C(=O)Cn2ncc3c(=O)oc4ccccc4c32)cc1Cl`, the activation was inactive: -5.79%.
As for `Cc1ccc(CN2C(=O)N(c3ccccc3)C(=O)C2CC(=O)Nc2ccccc2)cc1` (stereo unspecified), the figure is inactive: 19.1%; as for `COc1ccccc1NC(=O)Cn1nnc(C(=O)Nc2ccccc2Br)c1N`, inactive: 2.45%.
As for `CCc1cccc(C)c1NC(=O)Cn1cc2c(n1)CCCCC2`, the figure is inactive: -2.86%.
To `CCC(C)NC(=O)CSc1nc(-c2ccc(F)cc2)cc(C(F)(F)F)n1` (stereo unspecified) belongs inactive: 12.4%; to `COC(=O)c1ccccc1NC(=O)c1cnc2sc(N3CCOCC3)nn2c1=O`, inactive: -5.8%.
`CC(=O)N1CCN(c2csc3ccc(Br)cc3c2=O)CC1`: the activation is inactive: -58.8%.
As for `Cc1ccc(CNC(=O)c2cc(=O)c3cc(C)cc(C)c3o2)cc1`, the figure is inactive: 4.78%.
To `CCOc1ccc(NC(=O)c2cc3cc4cc(OC)ccc4nc3s2)cc1` belongs inactive: -8.93%; to `CCc1nn(CCCC(=O)NCc2cc(Br)ccc2OC)c(=O)c2cc3occc3n12`, inactive: -23.8%.
As for `COc1cccc(C(=O)Nc2cccc(C(=O)OCc3cc(=O)n4c5c(sc4n3)CCCC5)c2)c1`, the figure is inactive: -11%; as for `Cc1cccc(NS(=O)(=O)c2ccc3c(c2)OCC(C(=O)N2CCCC2)O3)c1C` (stereo unspecified), inactive: -13.4%.
`O=c1c2cccnc2n(Cc2cccc(F)c2)c(=O)n1Cc1ccccc1Cl`: the activation is inactive: -19.7%.
To `Cc1ccc(-c2nnc(Nc3ccc(O)cc3)c3ccccc23)cc1S(=O)(=O)N1CCCCC1` belongs inactive: -34.3%.
To `COc1ccc2cc(CNc3ccc(C)cc3)c(=O)n(CC(=O)Nc3cccc(C(F)(F)F)c3)c2c1` belongs inactive: -29.5%; to `CCOC(=O)CSc1nc2c(sc3cccc(F)c32)c(=O)n1Cc1ccc(OC)cc1`, inactive: -33.1%.
